This is an account of results in ChEMBL document CHEMBL1201862, “PubChem BioAssay data set” (2004).

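Exposure lasted 48 hours, with cells grown in 96-well plates and compounds tested at five concentrations. GI50 marks 50% less growth.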 Calls of active or inactive are those of the source. No stated cut-off is given here; in the data, active = GI50 up to about 1.1 µM and inactive = higher. Where only a bound is given, the exact number is not on record here.

The subject of this test is NCI-H322M. Briefly: DTP human tumour cell line panel, 48 h.
A word on the GI50: it is the concentration that inhibits growth by half. As to `O=C(O)c1cc(C(=O)O)nc(C(=O)O)c1`, the GI50 is inactive: > 100 µM.
Regarding `CC(C)(C)c1cc(Br)c(O)c(CN(Cc2cc(C(C)(C)C)cc(Br)c2O)C2CCCCC2)c1`, the GI50 is inactive: 16.8 µM.
As for `O=C(Oc1cccnc1)c1cc2cc(CCl)ccc2oc1=O`, the GI50 is inactive: > 100 µM.
Turning to `N=c1oc2c(O)c(O)ccc2cc1C(N)=O`, the GI50 was inactive: 47.8 µM.
As for `O=C(O)CCC(=O)c1ccc2sc3ccccc3c2c1`, the figure is inactive: > 100 µM.
Consider `COc1cc(/C=C2\CCc3cc(OC)c(OC)cc3C2=O)cc(OC)c1`, for which the GI50 is inactive: 15.5 µM.
For `CCCCc1ccc(Nc2nc(S)c3[nH]cnc3n2)cc1` the value was inactive: 22 µM.
Regarding `COc1ccc2cc(-c3ccc(OC)c(OC)c3)c(=O)oc2c1`, the GI50 was inactive: > 100 µM.
`NC(CCc1nc(-c2ccc(Cl)cc2)cs1)C(=O)O` (stereo unspecified): the GI50 was inactive: > 100 µM.
For `CC(C)[C@@H]1C=C(c2ccccc2)c2ccccc2C1C(C#N)(C#N)C(C)C` (stereo partly specified) the value was inactive: > 100 µM.
As for `O=c1[nH]c2cccc([N+](=O)[O-])c2c(=O)n1-c1ccc(Cl)cc1`, the figure is inactive: 12.6 µM.
As for `O=C(CN(c1ccccc1)c1ccccc1)N1c2ccccc2C2C=CC=CC21` (stereo unspecified), the GI50 is inactive: 27 µM.
As for `O=C(O)/C(O)=C\C(=O)c1ccc(Br)cc1`, the GI50 was inactive: > 100 µM.
For `CCOC(=O)Cc1nc2c(O)ncnc2n1C1OC(COC(C)=O)C(OC(C)=O)C1OC(C)=O` (stereo unspecified) the value was inactive: > 100 µM.
Regarding `NC(=S)N/N=C1\CCCCc2ccccc21`, the GI50 is inactive: > 10 µM.
Turning to `O=C(NCc1ccccc1)c1cc2ccccc2o/c1=N\c1cccc(C(F)(F)F)c1`, the GI50 was inactive: > 100 µM.
As for `COc1cc(C2[C@H]3C(=O)N(c4ccc(Cc5ccc(N6C(=O)[C@@H]7ON(c8ccccc8)C(c8cc(OC)c(OC)c(OC)c8)[C@@H]7C6=O)cc5)cc4)C(=O)[C@H]3ON2c2ccccc2)cc(OC)c1OC` (stereo partly specified), the GI50 was inactive: > 100 µM.
As for `CNC(=O)CN(CC(=O)O)C(=O)NC`, the GI50 was inactive: > 100 µM.
`S=C(N/N=C/c1ccco1)NC12CC3CC(CC(C3)C1)C2`: the GI50 was inactive: > 100 µM.
For `CCN(CC)CCO[Si](OCCN(CC)CC)(OCCN(CC)CC)OCCN(CC)CC` the value was inactive: > 100 µM; for `O=C(/C=C/c1c(O)ccc2ccccc12)c1ccccc1Cl`, inactive: 26.4 µM.
For the molecule `O=C(N/N=C\c1cccc2c([N+](=O)[O-])cccc12)Nc1ccccc1`, the GI50 is inactive: 11.9 µM.
On to `CN(C)c1ccc(/C=C2\C[C@H]3[C@@H]4CC=C5C[C@@H](O)CC[C@]5(C)[C@H]4CC[C@]3(C)C2=O)cc1`, for which the GI50 is inactive: 18.5 µM.
For `CCCCNC(=S)Nc1nc(C(=O)NNC(=O)c2ccccc2)cs1` the value was inactive: 12 µM.
For `O=NC1C(Cl)C2CC1C1C(Br)C(Br)CC21` (stereo unspecified) the value was inactive: > 100 µM; for `CCc1c(OC(C)=O)c2c(NC3OC(COC(C)=O)C(OC(C)=O)C(OC(C)=O)C3OC(C)=O)nc(SC)nc2oc1=O` (stereo unspecified), inactive: > 100 µM; for `COc1ccc(C(=O)/C=C/c2cc(O)c(O)c(F)c2F)c(OC)c1`, inactive: 26.4 µM.
For `COc1cc2cc3c4cc(OC)c(OC)cc4cc[n+]3cc2cc1OC`, the GI50 was inactive: > 100 µM.
`CCOC(=O)CCC(NC(=O)C(N)Cc1ccc(N(CCCl)CCCl)cc1)C(=O)OCC` (stereo unspecified): the GI50 was inactive: 7.76 µM.
In the case of `COc1cccc(NC(=O)CC(=O)Nc2cccc(OC)c2)c1`, the GI50 is inactive: > 100 µM.
As for `Cc1c(C)c(S(=O)(=O)N(CCCN)OCCCN)c(C)c2c1OC(C)(C)C2`, the GI50 is inactive: 52.8 µM.
With `Cc1c(C)n(COCCO)c2ncnc(N)c12`, the GI50 was inactive: > 100 µM.
As for `Cn1nc2ccccc2cc1=O`, the figure is inactive: > 100 µM; as for `COC1=C(OC)C(=O)C(Cc2c(C)nc3sc(C)cn23)=C(C)C1=O`, inactive: 36.9 µM; as for `Nc1c2ccccc2nc2nccnc12`, inactive: > 100 µM.
On to `O=C1C=CC(=O)c2c1c1c(c3c2C2c4ccccc4C3c3ccccc32)C2c3ccccc3C1c1ccccc12`, for which the GI50 was inactive: 22.1 µM.
`O=C1CSC(c2c[nH]c3ccccc23)N1c1ccc(Cl)cc1` (stereo unspecified): the GI50 is inactive: > 100 µM.
Regarding `c1ccc(C(=NNc2nc3ccccc3[nH]2)c2ccccn2)nc1`, the GI50 is active: 0.12 µM.
For `CC(C)(C)C1=CC(CCC(=O)Nc2ccccc2[N+](=O)[O-])=NC(S)N1` (stereo unspecified), the GI50 is inactive: > 100 µM.
For the molecule `C/C(=C\c1ccccc1)C(=O)NCc1ccc(C(=O)NCCC(C)C)cc1`, the GI50 was inactive: > 100 µM.
As to `Cc1nc2ccc(S(=O)(=O)O)cc2c(=O)n1-c1ccc(C(=O)NN2C(=O)C(Cl)C2c2ccccc2O)cc1` (stereo unspecified), the GI50 is inactive: > 100 µM.
As for `CN(C)CC1CCCCCCCCCCCCC(CN(C)C)C1=O` (stereo unspecified), the GI50 is inactive: 15.3 µM.
Turning to `Cc1ccc(/N=N/c2c(O)ccc3ccccc23)cc1`, the GI50 is inactive: > 100 µM.
For `CC1(C)CCCC2(C)C3=C(CCC12)C(=O)OC3` (stereo unspecified) the value was inactive: > 100 µM; for `CSC1=C(C#N)C(=O)N(c2ccc(C)cc2)C(=O)C1C#N` (stereo unspecified), inactive: > 100 µM; for `O1C2C1C1OC1C1OC1C1OC21` (stereo unspecified), inactive: > 100 µM.
As for `CCCN(CCC)c1c([N+](=O)[O-])cc(C(=O)N(CC)CC)cc1[N+](=O)[O-]`, the figure is inactive: 41.8 µM.
Turning to `Brc1ccc2[nH]cc(-c3csc(-c4ccccn4)n3)c2c1`, the GI50 was inactive: 15.5 µM.
For `COC1(OC)CC2OC1C1N=NN(C(=O)OC(C)(C)C)C21` (stereo unspecified) the value was inactive: > 100 µM; for `CNC(=O)C(C)C1C(=O)/C(=C(O)/C=C\C(C)=C\C(C)C2OC3(C)OC(C=CC34CO4)C2C)C(=O)N1C1CCC(O)C(C)O1` (stereo unspecified), inactive: > 100 µM.
As to `Cc1ncc(CSC(=N)N)n1Cc1ccccc1`, the GI50 was inactive: > 100 µM.
Turning to `CN1CCCCC1CCN1CCCCC1` (stereo unspecified), the GI50 was inactive: > 100 µM.
For `Cc1coc2c1[C@@H](O)[C@@]1(C)[C@H](CCC[C@@H]1C)C2`, the GI50 is inactive: 45.2 µM.
Take `Cn1nc2ccc(Nc3cc(=O)[nH]c4ccc5nn(C)nc5c34)cc2n1`: the GI50 was inactive: > 100 µM.
As for `C=C1c2nc3ccccc3n2C=C(c2ccc(OC)cc2)N1c1ccc(OCCN2CCOCC2)cc1`, the figure is inactive: > 90.4 µM.
On to `NC(=O)C(NC=O)c1ccccc1` (stereo unspecified), for which the GI50 was inactive: > 100 µM.
For `C#CCOC(=O)[C@@H](C)c1ccc2cc(OC)ccc2c1`, the GI50 is inactive: > 100 µM.
In the case of `CCCCCCNC(=S)N/N=C(\C)c1ccccn1`, the GI50 is active: < 0.0274 µM.
On to `Clc1ccc(-c2nc3cc(Cl)ccc3[nH]2)cc1`, for which the GI50 was inactive: 43.6 µM.
Take `O=C(NI1OC(=O)c2ccccc21)c1ccc(Cl)cc1`: the GI50 is inactive: > 100 µM.
Regarding `O=C1c2ccc3c4ccccc4n(-c4ccccc4)c3c2C(=O)N1c1ccc(Cl)cc1`, the GI50 is inactive: > 100 µM.
Turning to `CCN(CC)CC(C(=O)Nc1c(C)cccc1C)/C(C)=N/NC(N)=S` (stereo unspecified), the GI50 was inactive: > 100 µM.
As to `CC(=O)Nc1ccccc1-c1nc2ccccc2nc1-c1ccccc1`, the GI50 is inactive: > 100 µM.
On to `CCOC(CN=C=S)OCC`, for which the GI50 was inactive: > 10 µM.
As to `CN1CCN(/C(N)=C(\C#N)C(=O)Nc2ccc(Cl)cc2)CC1`, the GI50 was inactive: > 100 µM.
In the case of `COc1ccc(C)cc1-c1ccc(-c2cc(C)ccc2OC)o1`, the GI50 was inactive: > 100 µM.
On to `Cc1c(C)c(C)c(-n2c(=O)n(C)c(=O)n2-n2c(=O)n(C)c(=O)n2-c2c(C)c(C)c(C)c(C)c2C)c(C)c1C`, for which the GI50 is inactive: > 100 µM.
For `CCCC(=O)OC1CC(n2cc(F)c(=O)[nH]c2=O)OC1CO` (stereo unspecified), the GI50 was inactive: 3.55 µM.
On to `N#Cc1c2c(c(N=[N+]=[N-])n3c1nc1ccccc13)CCCC2`, for which the GI50 was inactive: 12.8 µM.
For `Cc1[nH]c2ccccc2c1/C=N/c1ccc(Oc2ccccc2)cc1`, the GI50 was inactive: 15.6 µM.
With `CC(NC(=O)/C(=C/c1ccccc1)NC(=O)c1ccccc1)C(=O)O` (stereo unspecified), the GI50 was inactive: 51.2 µM.
With `CCSC1=CC(Cc2ccc(OC)cc2)N(C(=O)OC)C1` (stereo unspecified), the GI50 was inactive: > 100 µM.
With `Nc1cccc(CCN2CCN(CCCc3ccccc3)CC2)c1`, the GI50 was inactive: 53.2 µM.
Turning to `COc1cc(CSc2ccc(O)cc2)cc(O)c1O`, the GI50 is inactive: 39.7 µM.
As for `O=[N+]([O-])c1ccc2nc(/C(=N/Nc3ccccc3)C(O)c3ccc(C(O)/C(=N\Nc4ccccc4)c4nc5ccc([N+](=O)[O-])cc5nc4O)cc3)cnc2c1` (stereo unspecified), the figure is inactive: 76.2 µM; as for `COc1cc(C)c(C)c(OC(=O)c2c(C)c(C)c(OC)c(C)c2OC)c1C`, inactive: 54.2 µM; as for `NCCCCC(NC(=O)C(N)Cc1ccc(O)cn1)C(=O)O` (stereo unspecified), inactive: > 100 µM.
Take `CC1=C2C3OC(=O)C(C)C3CCC2(C)C=C/C1=N\c1ccccc1` (stereo unspecified): the GI50 was inactive: > 100 µM.
On to `O=C(Nc1nncs1)NS(=O)(=O)n1cnc2ccccc21`, for which the GI50 is inactive: > 100 µM.
As for `COc1cc([N+](=O)[O-])c(S(=O)(=O)O)cc1NS(=O)(=O)c1ccc(C)cc1`, the figure is inactive: > 100 µM.
For the molecule `O=S(=O)(O)c1ccc2cc(/N=N/c3c(O)ccc4ccccc34)ccc2c1`, the GI50 is inactive: > 100 µM.
As for `C/C=C(/C)C(=O)O[C@H](C[C@@H](C)[C@H]1CC(c2ccoc2)OC1=O)[C@@]1(C)C(=O)CCC2O[C@]21C` (stereo partly specified), the GI50 is inactive: > 100 µM.
`CC1=CC2(C)C=C[C@@H]1C(=O)[C@@]1(C)CC[C@@](O)(C(C)C)[C@H]1CC2`: the GI50 is inactive: 20.9 µM.
Take `Cc1ncc([N+](=O)[O-])n1CC(O)Cn1cnc([N+](=O)[O-])n1` (stereo unspecified): the GI50 was inactive: > 100 µM.
As for `Nc1ncnc2c1ccn2COC(CO)CO`, the GI50 is inactive: > 100 µM.
Regarding `Nc1nc(Cl)cc(Nc2ccc3c(c2)CCC3)n1`, the GI50 is inactive: 78.5 µM.
